# From PubChem BioAssay AID624296 (National Center for Advancing Translational Sciences (NCATS), 2012)
# The campaign covered roughly 350,000 compounds. About 9,900 (2.8%) were called active. This list was built around the results that the source calls inconclusive (neither active nor inactive); the mix of calls is not that of the screen. The call rests on the fitted dose curve; in most records, active means well fitted activation curve with a large enough effect; inconclusive means small, poorly fitted or top-dose-only effect; inactive means no such curve, though single readings can be large or run the other way. Potencies of inconclusive entries are left out as doubtful fits.
# Test: A quantitative high throughput screen for small molecules that induce DNA re-replication in MCF 10a normal breast cells. Further: nearly all actives have a fitted effect of over 50% in size. On activity, positive = re-replication: % of control where 0% means no effect.
# Conditions: MCF 10A DNA re-replication, Hoechst nuclear intensity, 48 h; activity, positive = re-replication: at 46.1 µM (top of the series)
# Potency means the concentration at half of the fitted maximal effect; tags describe the fitted curve by direction and shape.
Compound,Potency,"activity, positive = re-replication"
C/C(=N\Nc1ccc(C(F)(F)F)cn1)c1ccc(S(=O)(=O)NCc2ccco2)cc1,"inconclusive [activator, full curve, poor fit]",
CC1(C)Cc2c(c(N3CCOCC3)nc3sc(-c4ccc(C(=O)O)o4)c(N)c23)CO1,"inconclusive [activator, single point]",
COc1cc2c(cc1OC)C(C)N(C(=O)c1c(-c3ccccc3)noc1C)CC2 (configuration not stated),active: 11.6 µM,
CCOC(=O)N1CCC(n2c(SCC(=O)Nc3ccccc3OC)nc3ccccc3c2=O)CC1,"inconclusive [activator, partial curve, poor fit]",
O=C(Cc1ccccc1)Nc1ccccc1C(=O)N1CCN(c2ccccc2)CC1,,inactive: -1.03%
O=C(NCCc1cccs1)C1CC1,,inactive: -1.92%
Cc1onc(-c2c(Cl)cccc2Cl)c1C(=O)N1CCN(c2ccccc2F)CC1,"inconclusive [activator, partial curve, poor fit]",
CC(C)Sc1nc2ccccc2[nH]1,"inconclusive [activator, single point]",
COc1ccc(-c2nc3ccccc3nc2-c2ccccc2)cc1OC,"inconclusive [activator, single point]",
Cc1cccc(C)c1NC(=O)COc1ccc2c(C)c(Cc3ccccc3)c(=O)oc2c1,,inactive: 13.3%
Nc1cc2c3ccccc3ccc2c2ccccc12,"inconclusive [activator, full curve]",
COc1ccc(S(=O)(=O)N2CCOCC2)cc1C(=O)Nc1ccc(N2CCCCCC2)cc1,"inconclusive [activator, partial curve, poor fit]",
COc1ccc(-c2cc(C(=O)N3CCCCCC3)c3ccccc3n2)cc1,,inactive: 13%
CCN=c1scc(-c2ccco2)n1/N=C/c1ccc(O)cc1,active: 23.1 µM,
CCOC(=O)c1cnc2ccc(OCC)cc2c1NCc1ccccc1,active: 20.6 µM,
CCc1c(C2(O)CCCCC2)[nH]c2c(C(=O)OC)cc(Cl)cc12,"inconclusive [activator, single point]",
Cc1ccc(-c2nn(CCC(=O)NN3CCOCC3)c(=O)c3ccccc23)cc1,"inconclusive [activator, partial curve, poor fit]",
CCN(CC)CCCNc1nc2ccccc2c2nc(-c3ccncc3)nn12,"inconclusive [activator, single point]",
O=C(NC(=O)c1ccccc1Cl)C(=O)Nc1ccc(Cl)cc1,"inconclusive [activator, single point]",
C(=N\Nc1nn[nH]n1)/c1ccccc1,,inactive: 27.9%
Cc1cc(C)cc(N(CC(=O)NC(C)C)C(=O)CCC(=O)Nc2ccccn2)c1,"inconclusive [activator, single point]",
Cn1nnnc1SCC(=O)NC(=O)Cc1ccccc1,"inconclusive [activator, single point]",
O=C(Nc1nc2ccccc2[nH]1)c1ccccc1O,"inconclusive [activator, single point]",
O=C(COC(=O)C12CC3CC(CC(Cl)(C3)C1)C2)N1CCCCC1,,inactive: -11%

Compound,Potency,"activity, positive = re-replication"
Cc1cc(C)n2[nH]c(=O)c(N=Nc3cccc(C(F)(F)F)c3)c2n1,,inactive: -3.1%
COc1ccc2nc(NC(=O)CSc3n[nH]c(N)n3)sc2c1,,inactive: 3.05%
CCOC(=O)c1n[nH]c(=O)c2ccccc12,"inconclusive [activator, single point]",
Cc1cccc(NCc2ccccc2OCc2ccccc2F)c1,"inconclusive [activator, single point]",
CN1CCN(c2nc3c(c(=O)[nH]c(=O)n3C)n2CCCSc2nnnn2-c2ccccc2)CC1,,inactive: 1.26%
Oc1ccccc1-c1nc(NCc2ccccc2)c2ccccc2n1,"inconclusive [activator, single point]",
O=C1NC(c2cccc(Cl)c2)Nc2ccccc21 (configuration not stated),"inconclusive [activator, single point]",
O=[N+]([O-])c1ccc(N2CCN(S(=O)(=O)c3ccc(Cl)cc3)CC2)cc1NCC1CCCO1 (configuration not stated),"inconclusive [activator, partial curve]",
CCn1cc(C2=NC(CC(C)C)CO2)c2ccccc21 (configuration not stated),"inconclusive [activator, single point]",
COc1cc(Cl)ccc1OCc1cc(C(=O)NCc2cc(C(C)C)no2)no1,"inconclusive [activator, partial curve, poor fit]",
N#Cc1ccc(CC(=O)c2ccccc2)[nH]c1=O,,inactive: 2.35%
Cc1ccc(N2C(S)=C(C#N)C(=O)NC2c2ccco2)cc1 (configuration not stated),,inactive: 14.4%
COc1ccc2[nH]cc(CCNC(=S)NCCc3ccccc3)c2c1,,inactive: 0.778%
CCN1CCN(c2nc3sc4c(c3c(=O)n2-c2ccc(OC)cc2)CCCCC4)CC1,"inconclusive [activator, single point]",
COC(=O)Cc1cc(=O)n(-c2nc3ccccc3s2)[nH]1,"inconclusive [activator, single point]",
COc1ccc(C2CC(C(F)(F)F)n3nc(C(=O)Nc4c(C)n(C)n(-c5ccccc5)c4=O)c(Cl)c3N2)cc1 (configuration not stated),"inconclusive [activator, partial curve, poor fit]",
Cc1cc(-c2ccc(S(=O)(=O)N3CCN(c4ccc(F)cc4)CC3)s2)on1,"inconclusive [activator, single point]",
C/C(CC(=O)Nc1ccc(C)c(Cl)c1)=N\NC(=O)c1ccco1,active: 18.4 µM,
CN(C)N1C(N)=C(C#N)C(c2ccc3c(c2)OCO3)C2=C1CCCC2=O (configuration not stated),,inactive: 8.95%
CCOC(=O)N1CCN(c2ccc(Cl)c(Cl)c2)CC1,,inactive: -17.6%
CCc1c(C)nc2ncnn2c1N1CCC(C(=O)NCc2cccc(OC)c2)CC1,,inactive: 0.108%
O=C(Cn1nnc(-c2ccccc2NC(=O)c2cccs2)n1)Nc1ccccc1,"inconclusive [activator, single point]",
CCc1ccc(-c2cc(C)no2)cc1S(=O)(=O)NCc1ccco1,"inconclusive [activator, single point]",
